Laboratory results reported in the supplement of paper PMC8728848.
The other results are listed elsewhere or left out.

Assays:
Test in all cases: glycan array binding signal (z-score within array); higher = stronger binding
Conditions in all cases: glycan notation: IUPAC condensed, linker removed
Gal3S6S(b1-4)GlcNAc = target: Gal3S6S(b1-4)GlcNAc
Summary of the method: (§1)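 Glycan array binding is given as a within-array Z-score, which can be read as non-binding when negative. The arrays, 3228 of them, came from the Consortium for Functional Glycomics database and were retained only where the protein sequence was available. Z-scores were averaged across arrays of the same protein sequence at different concentrations or buffers and across linkers.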

Gal3S6S(b1-4)GlcNAc6S = target: Gal3S6S(b1-4)GlcNAc6S
Summary of the method: as §1

Gal4S(b1-4)GlcNAc = target: Gal4S(b1-4)GlcNAc
Summary of the method: as §1

Gal4S6S(b1-4)GlcNAc = target: Gal4S6S(b1-4)GlcNAc
Summary of the method: as §1

Gal6P(b1-4)GlcNAc = target: Gal6P(b1-4)GlcNAc
Summary of the method: as §1

Gal6S(b1-3)GlcNAc = target: Gal6S(b1-3)GlcNAc
Summary of the method: as §1

Gal6S(b1-3)GlcNAc6S = target: Gal6S(b1-3)GlcNAc6S
Summary of the method: as §1

Gal6S(b1-4)Glc = target: Gal6S(b1-4)Glc
Summary of the method: as §1

Gal6S(b1-4)Glc6S = target: Gal6S(b1-4)Glc6S
Summary of the method: as §1

Gal6S(b1-4)GlcNAc = target: Gal6S(b1-4)GlcNAc
Summary of the method: as §1

Gal6S(b1-4)GlcNAc6S = target: Gal6S(b1-4)GlcNAc6S
Summary of the method: as §1

GalNAc(a1-3)Gal = target: GalNAc(a1-3)Gal
Summary of the method: as §1

GalNAc(a1-3)GalNAc = target: GalNAc(a1-3)GalNAc
Summary of the method: as §1

[1] = target: GalNAc(a1-3)GalNAc(b1-3)Gal(a1-4)Gal(b1-4)Glc
Summary of the method: as §1

[2] = target: GalNAc(a1-3)GalNAc(b1-3)Gal(a1-4)Gal(b1-4)GlcNAc
Summary of the method: as §1

GalNAc(b1-3)Gal = target: GalNAc(b1-3)Gal
Summary of the method: as §1

[3] = target: GalNAc(b1-3)Gal(a1-4)Gal(b1-4)GlcNAc
Summary of the method: as §1

[4] = target: GalNAc(b1-3)Gal(a1-4)Gal(b1-4)GlcNAc(b1-3)Gal(b1-4)Glc
Summary of the method: as §1

[5] = target: GalNAc(b1-3)Gal(a1-6)Gal(b1-4)Glc
Summary of the method: as §1

GalNAc(b1-3)GalNAc = target: GalNAc(b1-3)GalNAc
Summary of the method: as §1

GalNAc(b1-3)GlcNAc = target: GalNAc(b1-3)GlcNAc
Summary of the method: as §1

GalNAc(b1-4)Gal(b1-4)Glc = target: GalNAc(b1-4)Gal(b1-4)Glc
Summary of the method: as §1

GalNAc(b1-4)GlcNAc = target: GalNAc(b1-4)GlcNAc
Summary of the method: as §1

[6] = target: GalNAc(b1-4)GlcNAc(b1-2)Man
Summary of the method: as §1

[7] = target: GalNAc(b1-4)GlcNAc(b1-2)Man(a1-3)[GalNAc(b1-4)GlcNAc(b1-2)Man(a1-6)]Man(b1-4)GlcNAc(b1-4)GlcNAc
Summary of the method: as §1

[8] = target: GalNAc(b1-4)GlcNAc(b1-3)GalNAc(b1-4)GlcNAc
Summary of the method: as §1

GalNAc(b1-4)GlcNAc6S = target: GalNAc(b1-4)GlcNAc6S
Summary of the method: as §1

GalNAc(b1-6)GalNAc = target: GalNAc(b1-6)GalNAc
Summary of the method: as §1

GalNAc3S(b1-4)GlcNAc = target: GalNAc3S(b1-4)GlcNAc
Summary of the method: as §1

GalNAc3S(b1-4)GlcNAc3S = target: GalNAc3S(b1-4)GlcNAc3S
Summary of the method: as §1

[9] = target: GalNAc3S(b1-4)[Fuc(a1-3)]GlcNAc
Summary of the method: as §1

GalNAc4S6S(b1-4)GlcNAc = target: GalNAc4S6S(b1-4)GlcNAc
Summary of the method: as §1

GalNAc6S(b1-4)GlcNAc = target: GalNAc6S(b1-4)GlcNAc
Summary of the method: as §1

Glc(a1-4)Glc = target: Glc(a1-4)Glc
Summary of the method: as §1

[10] = target: Glc(a1-4)Glc(a1-4)Glc(a1-4)Glc
Summary of the method: as §1

Glc(a1-6)Glc(a1-6)Glc = target: Glc(a1-6)Glc(a1-6)Glc
Summary of the method: as §1

[11] = target: Glc(a1-6)Glc(a1-6)Glc(a1-6)Glc
Summary of the method: as §1

Glc(b1-4)Glc = target: Glc(b1-4)Glc
Summary of the method: as §1

B1: LecRKVI.2 (protein)
chain: RTTTNFAFRGFNGNQSKIRIEGAAMIKPDGLLRLTDRKSNVTGTAFYHKPVRLLNRNSTNVTIRSFSTSFVFVIIPSSSSNKGFGFTFTLSPTPYRLNAGSAQYLGVFNKENNGDPRNHVFAVEFDTVQGSRDDNTDRIGNDIGLNYNSRTSDLQEPVVYYNNDDHNKKEDFQLESGNPIQALLEYDGATQMLNVTVYPARLGFKPTKPLISQHVPKLLEIVQEEMYVGFTASTGKGQSSAHYVMGWSFSSGGERPIADVLILSELPPPPPNKAKKEGLNS
Gal3S6S(b1-4)GlcNAc
  glycan array binding signal (z-score): -0.344
Gal3S6S(b1-4)GlcNAc6S
  glycan array binding signal (z-score): -0.298
Gal4S(b1-4)GlcNAc
  glycan array binding signal (z-score): -0.292
Gal4S6S(b1-4)GlcNAc
  glycan array binding signal (z-score): -0.352
Gal6P(b1-4)GlcNAc
  glycan array binding signal (z-score): 0.267
Gal6S(b1-3)GlcNAc
  glycan array binding signal (z-score): 0.647
Gal6S(b1-3)GlcNAc6S
  glycan array binding signal (z-score): -0.041
Gal6S(b1-4)Glc
  glycan array binding signal (z-score): -0.163
Gal6S(b1-4)Glc6S
  glycan array binding signal (z-score): -0.354
Gal6S(b1-4)GlcNAc
  glycan array binding signal (z-score): -0.265
Gal6S(b1-4)GlcNAc6S
  glycan array binding signal (z-score): -0.138
GalNAc(a1-3)Gal
  glycan array binding signal (z-score): 3.89
GalNAc(a1-3)GalNAc
  glycan array binding signal (z-score): -0.315
[1]
  glycan array binding signal (z-score): -0.362
[2]
  glycan array binding signal (z-score): -0.332
GalNAc(b1-3)Gal
  glycan array binding signal (z-score): 0.446
[3]
  glycan array binding signal (z-score): -0.271
[4]
  glycan array binding signal (z-score): -0.106
[5]
  glycan array binding signal (z-score): -0.316
GalNAc(b1-3)GalNAc
  glycan array binding signal (z-score): -0.415
GalNAc(b1-3)GlcNAc
  glycan array binding signal (z-score): 0.105
GalNAc(b1-4)Gal(b1-4)Glc
  glycan array binding signal (z-score): -0.332
GalNAc(b1-4)GlcNAc
  glycan array binding signal (z-score): 0.038
[6]
  glycan array binding signal (z-score): 0.196
[7]
  glycan array binding signal (z-score): 0.707
[8]
  glycan array binding signal (z-score): -0.258
GalNAc(b1-4)GlcNAc6S
  glycan array binding signal (z-score): -0.305
GalNAc(b1-6)GalNAc
  glycan array binding signal (z-score): -0.445
GalNAc3S(b1-4)GlcNAc
  glycan array binding signal (z-score): -0.314
GalNAc3S(b1-4)GlcNAc3S
  glycan array binding signal (z-score): -0.321
[9]
  glycan array binding signal (z-score): -0.345
GalNAc4S6S(b1-4)GlcNAc
  glycan array binding signal (z-score): -0.338
GalNAc6S(b1-4)GlcNAc
  glycan array binding signal (z-score): 0.133
Glc(a1-4)Glc
  glycan array binding signal (z-score): -0.353
[10]
  glycan array binding signal (z-score): -0.441
Glc(a1-6)Glc(a1-6)Glc
  glycan array binding signal (z-score): -0.423
[11]
  glycan array binding signal (z-score): -0.344
Glc(b1-4)Glc
  glycan array binding signal (z-score): -0.292
